# Results from the supplement of paper PMC8728848.
# The list shows a part of the results.
# Tests used:
# Assay in all cases: glycan array binding signal (z-score within array); higher = stronger binding
# Conditions in all cases: glycan notation: IUPAC condensed, linker removed
# [1] = biological target: Neu5Ac(a2-3)Gal(b1-3)]Neu5Ac(a2-3)Gal(b1-4)]GlcNAc
# Summary of the method: (§1)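 Arrays were curated from the Consortium for Functional Glycomics database, 3228 in total, and kept only where the protein sequence was available. Binding is expressed as a within-array Z-score. This score was averaged across arrays of the same protein sequence at different concentrations or buffers and across linkers, and negative values can be read as non-binding.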
# Neu5Ac(a2-3)Gal(b1-4)Glc = biological target: Neu5Ac(a2-3)Gal(b1-4)Glc
# Summary of the method: as §1
# [2] = biological target: Neu5Ac(a2-3)Gal(b1-4)GlcNAc
# Summary of the method: as §1
# [3] = biological target: Neu5Ac(a2-3)Gal(b1-4)GlcNAc(b1-2)Man
# Summary of the method: as §1
# [4] = biological target: Neu5Ac(a2-3)Gal(b1-4)GlcNAc(b1-2)Man(a1-3)[GlcNAc(b1-4)][Neu5Ac(a2-3)Gal(b1-4)GlcNAc(b1-2)Man(a1-6)]Man(b1-4)GlcNAc(b1-4)GlcNAc
# Summary of the method: as §1
# [5] = biological target: Neu5Ac(a2-3)Gal(b1-4)GlcNAc(b1-2)Man(a1-3)[Neu5Ac(a2-3)Gal(b1-4)GlcNAc(b1-2)Man(a1-6)]Man(b1-4)GlcNAc(b1-4)GlcNAc
# Summary of the method: as §1
# [6] = biological target: Neu5Ac(a2-3)Gal(b1-4)GlcNAc(b1-2)Man(a1-3)[Neu5Ac(a2-3)Gal(b1-4)GlcNAc(b1-2)Man(a1-6)]Man(b1-4)GlcNAc(b1-4)[Fuc(a1-6)]GlcNAc
# Summary of the method: as §1
# [7] = biological target: Neu5Ac(a2-3)Gal(b1-4)GlcNAc(b1-2)Man(a1-3)[Neu5Ac(a2-6)Gal(b1-4)GlcNAc(b1-2)Man(a1-6)]Man(b1-4)GlcNAc(b1-4)GlcNAc
# Summary of the method: as §1
# [8] = biological target: Neu5Ac(a2-3)Gal(b1-4)GlcNAc(b1-2)[Neu5Ac(a2-3)Gal(b1-4)GlcNAc(b1-4)]Man(a1-3)[GlcNAc(b1-4)][Neu5Ac(a2-3)Gal(b1-4)GlcNAc(b1-2)[Neu5Ac(a2-3)Gal(b1-4)GlcNAc(b1-6)]Man(a1-6)]Man(b1-4)GlcNAc(b1-4)GlcNAc
# Summary of the method: as §1
# [9] = biological target: Neu5Ac(a2-3)Gal(b1-4)GlcNAc(b1-2)[Neu5Ac(a2-3)Gal(b1-4)GlcNAc(b1-4)]Man(a1-3)[GlcNAc(b1-4)][Neu5Ac(a2-3)Gal(b1-4)GlcNAc(b1-4)Man(a1-6)]Man(b1-4)GlcNAc(b1-4)GlcNAc
# Summary of the method: as §1
# [10] = biological target: Neu5Ac(a2-3)Gal(b1-4)GlcNAc(b1-2)[Neu5Ac(a2-3)Gal(b1-4)GlcNAc(b1-6)]Man(a1-6)[Neu5Ac(a2-3)Gal(b1-4)GlcNAc(b1-2)Man(a1-3)][GlcNAc(b1-4)]Man(b1-4)GlcNAc(b1-4)GlcNAc
# Summary of the method: as §1
# [11] = biological target: Neu5Ac(a2-3)Gal(b1-4)GlcNAc(b1-3)Gal
# Summary of the method: as §1
# [12] = biological target: Neu5Ac(a2-3)Gal(b1-4)GlcNAc(b1-3)Gal(b1-3)GlcNAc
# Summary of the method: as §1
# [13] = biological target: Neu5Ac(a2-3)Gal(b1-4)GlcNAc(b1-3)Gal(b1-4)GlcNAc
# Summary of the method: as §1
# [14] = biological target: Neu5Ac(a2-3)Gal(b1-4)GlcNAc(b1-3)Gal(b1-4)GlcNAc(b1-2)Man(a1-3)[Neu5Ac(a2-3)Gal(b1-4)GlcNAc(b1-3)Gal(b1-4)GlcNAc(b1-2)Man(a1-6)]Man(b1-4)GlcNAc(b1-4)GlcNAc
# Summary of the method: as §1
# [15] = biological target: Neu5Ac(a2-3)Gal(b1-4)GlcNAc(b1-3)Gal(b1-4)GlcNAc(b1-3)Gal(b1-4)GlcNAc
# Summary of the method: as §1
# [16] = biological target: Neu5Ac(a2-3)Gal(b1-4)GlcNAc(b1-3)Gal(b1-4)GlcNAc(b1-3)Gal(b1-4)GlcNAc(b1-2)Man(a1-3)[Neu5Ac(a2-3)Gal(b1-4)GlcNAc(b1-3)Gal(b1-4)GlcNAc(b1-3)Gal(b1-4)GlcNAc(b1-2)Man(a1-6)]GalNAc
# Summary of the method: as §1
# [17] = biological target: Neu5Ac(a2-3)Gal(b1-4)GlcNAc(b1-3)Gal(b1-4)GlcNAc(b1-3)GalNAc
# Summary of the method: as §1
# [18] = biological target: Neu5Ac(a2-3)Gal(b1-4)GlcNAc(b1-3)Gal(b1-4)GlcNAc(b1-3)[Neu5Ac(a2-3)Gal(b1-4)GlcNAc(b1-3)Gal(b1-4)GlcNAc(b1-6)]GalNAc
# Summary of the method: as §1
# [19] = biological target: Neu5Ac(a2-3)Gal(b1-4)GlcNAc(b1-3)Gal(b1-4)GlcNAc(b1-6)[Gal(b1-3)]GalNAc
# Summary of the method: as §1
# [20] = biological target: Neu5Ac(a2-3)Gal(b1-4)GlcNAc(b1-3)Gal(b1-4)[Fuc(a1-3)]GlcNAc
# Summary of the method: as §1
# [21] = biological target: Neu5Ac(a2-3)Gal(b1-4)GlcNAc(b1-3)GalNAc
# Summary of the method: as §1
# [22] = biological target: Neu5Ac(a2-3)Gal(b1-4)GlcNAc(b1-3)[Neu5Ac(a2-3)Gal(b1-4)GlcNAc(b1-6)]GalNAc
# Summary of the method: as §1
# [23] = biological target: Neu5Ac(a2-3)Gal(b1-4)GlcNAc(b1-6)GalNAc
# Summary of the method: as §1
# [24] = biological target: Neu5Ac(a2-3)Gal(b1-4)GlcNAc(b1-6)[Gal(b1-3)]GalNAc
# Summary of the method: as §1
# [25] = biological target: Neu5Ac(a2-3)Gal(b1-4)GlcNAc(b1-6)[Neu5Ac(a2-3)Gal(b1-3)]GalNAc
# Summary of the method: as §1
# [26] = biological target: Neu5Ac(a2-3)Gal(b1-4)GlcNAc6S
# Summary of the method: as §1
# [27] = biological target: Neu5Ac(a2-3)Gal(b1-4)[Fuc(a1-3)]GlcNAc
# Summary of the method: as §1
# [28] = biological target: Neu5Ac(a2-3)Gal(b1-4)[Fuc(a1-3)]GlcNAc(b1-2)Man
# Summary of the method: as §1
# [29] = biological target: Neu5Ac(a2-3)Gal(b1-4)[Fuc(a1-3)]GlcNAc(b1-3)Gal
# Summary of the method: as §1
# [30] = biological target: Neu5Ac(a2-3)Gal(b1-4)[Fuc(a1-3)]GlcNAc(b1-3)Gal(b1-4)GlcNAc
# Summary of the method: as §1
# [31] = biological target: Neu5Ac(a2-3)Gal(b1-4)[Fuc(a1-3)]GlcNAc(b1-3)Gal(b1-4)[Fuc(a1-3)]GlcNAc(b1-3)Gal(b1-4)[Fuc(a1-3)]GlcNAc
# Summary of the method: as §1
# [32] = biological target: Neu5Ac(a2-3)Gal(b1-4)[Fuc(a1-3)]GlcNAc(b1-3)GalNAc
# Summary of the method: as §1
# [33] = biological target: Neu5Ac(a2-3)Gal(b1-4)[Fuc(a1-3)]GlcNAc(b1-6)[Gal(b1-3)]GalNAc
# Summary of the method: as §1
# [34] = biological target: Neu5Ac(a2-3)Gal(b1-4)[Fuc(a1-3)]GlcNAc(b1-6)[Neu5Ac(a2-3)Gal(b1-3)]GalNAc
# Summary of the method: as §1
# [35] = biological target: Neu5Ac(a2-3)Gal(b1-4)[Fuc(a1-3)]GlcNAc6S
# Summary of the method: as §1
# [36] = biological target: Neu5Ac(a2-3)Gal6S(b1-4)GlcNAc
# Summary of the method: as §1
# [37] = biological target: Neu5Ac(a2-3)Gal6S(b1-4)[Fuc(a1-3)]GlcNAc
# Summary of the method: as §1
binder,measurement,setting,value
Pwp4 (Candida glabrata) (protein) MGSSHHHHHHSSGLVPRGSHMASVGNPITVSNVCSFPKNWHRTAGFRALTARLGIGIQSDSYKELLNYPGTFQLTTQQSSTTKPNFQISGLVGNIYGLTIVPSYLLVELTGYFVPPVSGEYTFSLEGSDDAAIIFIANPSTFKCGHVEDWPTAYDNDVTVTESIHATRTIYMIEGVAYPIRIAYYNGLSLGKLQASFTDPEGVKRVDWNGYIWRYDSCDTCSYV,glycan array binding signal (z-score),[1],-0.455
same,glycan array binding signal (z-score),Neu5Ac(a2-3)Gal(b1-4)Glc,-0.413
same,glycan array binding signal (z-score),[2],-0.091
same,glycan array binding signal (z-score),[3],-0.174
same,glycan array binding signal (z-score),[4],-0.142
same,glycan array binding signal (z-score),[5],-0.563
same,glycan array binding signal (z-score),[6],1.34
same,glycan array binding signal (z-score),[7],0.37
same,glycan array binding signal (z-score),[8],-0.591
same,glycan array binding signal (z-score),[9],-0.489
same,glycan array binding signal (z-score),[10],9.42
same,glycan array binding signal (z-score),[11],0.071
same,glycan array binding signal (z-score),[12],-0.584
same,glycan array binding signal (z-score),[13],-0.408
same,glycan array binding signal (z-score),[14],-0.256
same,glycan array binding signal (z-score),[15],0.214
same,glycan array binding signal (z-score),[16],0.096
same,glycan array binding signal (z-score),[17],0.201
same,glycan array binding signal (z-score),[18],-0.419
same,glycan array binding signal (z-score),[19],-0.519
same,glycan array binding signal (z-score),[20],-0.414
same,glycan array binding signal (z-score),[21],-0.255
same,glycan array binding signal (z-score),[22],0.136
same,glycan array binding signal (z-score),[23],0.163
same,glycan array binding signal (z-score),[24],0.013
same,glycan array binding signal (z-score),[25],-0.278
same,glycan array binding signal (z-score),[26],-0.629
same,glycan array binding signal (z-score),[27],0.138
same,glycan array binding signal (z-score),[28],0.163
same,glycan array binding signal (z-score),[29],0.061
same,glycan array binding signal (z-score),[30],-0.168
same,glycan array binding signal (z-score),[31],-0.404
same,glycan array binding signal (z-score),[32],-0.172
same,glycan array binding signal (z-score),[33],-0.316
same,glycan array binding signal (z-score),[34],0.089
same,glycan array binding signal (z-score),[35],-0.478
same,glycan array binding signal (z-score),[36],-0.614
same,glycan array binding signal (z-score),[37],-0.421
